Some of the results follow.
Columns and labels:
Assay in all cases: glycan array binding signal (z-score within array); higher = stronger binding
Conditions in all cases: glycan notation: IUPAC condensed, linker removed
[1] = molecular target: Neu5Ac(a2-6)GlcNAc(b1-4)GlcNAc(b1-4)GlcNAc
Outline: (§1)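 Glycan array data came from 3228 arrays in the Consortium for Functional Glycomics database, and only arrays with an available protein sequence were kept. Glycan names were put into IUPAC-condensed notation, and columns mapping to the same glycan were averaged. The binding signal is a within-array Z-score, averaged across arrays of one protein sequence run at different concentrations or buffers and across linkers. A negative Z-score can be read as non-binding.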

Neu5Ac(a2-8)Neu5Ac = molecular target: Neu5Ac(a2-8)Neu5Ac
Outline: as §1

[2] = molecular target: Neu5Ac(a2-8)Neu5Ac(a2-3)Gal(b1-3)GalNAc(b1-4)[Neu5Ac(a2-3)]Gal(b1-4)Glc
Outline: as §1

[3] = molecular target: Neu5Ac(a2-8)Neu5Ac(a2-3)Gal(b1-3)GalNAc(b1-4)[Neu5Ac(a2-8)Neu5Ac(a2-3)]Gal(b1-4)Glc
Outline: as §1

[4] = molecular target: Neu5Ac(a2-8)Neu5Ac(a2-3)Gal(b1-4)Glc
Outline: as §1

[5] = molecular target: Neu5Ac(a2-8)Neu5Ac(a2-3)Gal(b1-4)GlcNAc
Outline: as §1

[6] = molecular target: Neu5Ac(a2-8)Neu5Ac(a2-3)[Gal(b1-3)GalNAc(b1-4)]Gal(b1-4)Glc
Outline: as §1

[7] = molecular target: Neu5Ac(a2-8)Neu5Ac(a2-3)[GalNAc(b1-4)]Gal(b1-4)Glc
Outline: as §1

[8] = molecular target: Neu5Ac(a2-8)Neu5Ac(a2-8)Neu5Ac
Outline: as §1

[9] = molecular target: Neu5Ac(a2-8)Neu5Ac(a2-8)Neu5Ac(a2-3)Gal(b1-4)Glc
Outline: as §1

[10] = molecular target: Neu5Ac(a2-8)Neu5Ac(a2-8)Neu5Ac(a2-3)[Gal(b1-3)GalNAc(b1-4)]Gal(b1-4)Glc
Outline: as §1

[11] = molecular target: Neu5Ac(a2-8)Neu5Ac(a2-8)Neu5Ac(a2-3)[GalNAc(b1-4)]Gal(b1-4)Glc
Outline: as §1

[12] = molecular target: Neu5Ac(a2-8)Neu5Ac(a2-8)Neu5Ac(a2-8)Neu5Ac(a2-3)[GalNAc(b1-4)]Gal(b1-4)Glc
Outline: as §1

[13] = molecular target: Neu5Ac(a2-8)Neu5Gc(a2-3)Gal(b1-4)GlcNAc
Outline: as §1

[14] = molecular target: Neu5Ac(b2-6)Gal(b1-4)GlcNAc
Outline: as §1

Neu5Ac(b2-6)GalNAc = molecular target: Neu5Ac(b2-6)GalNAc
Outline: as §1

[15] = molecular target: Neu5Ac9Ac(a2-3)Gal(b1-3)GlcNAc
Outline: as §1

[16] = molecular target: Neu5Ac9Ac(a2-3)Gal(b1-4)GlcNAc
Outline: as §1

[17] = molecular target: Neu5Ac9Ac(a2-6)Gal(b1-4)GlcNAc
Outline: as §1

[18] = molecular target: Neu5Gc(a2-3)Gal(b1-3)GlcNAc
Outline: as §1

[19] = molecular target: Neu5Gc(a2-3)Gal(b1-3)[Fuc(a1-4)]GlcNAc
Outline: as §1

Neu5Gc(a2-3)Gal(b1-4)Glc = molecular target: Neu5Gc(a2-3)Gal(b1-4)Glc
Outline: as §1

[20] = molecular target: Neu5Gc(a2-3)Gal(b1-4)GlcNAc
Outline: as §1

[21] = molecular target: Neu5Gc(a2-3)Gal(b1-4)GlcNAc(b1-3)Gal(b1-4)GlcNAc(b1-2)Man(a1-3)[Neu5Gc(a2-3)Gal(b1-4)GlcNAc(b1-3)Gal(b1-4)GlcNAc(b1-2)Man(a1-6)]Man(b1-4)GlcNAc(b1-4)GlcNAc
Outline: as §1

[22] = molecular target: Neu5Gc(a2-3)Gal(b1-4)[Fuc(a1-3)]GlcNAc
Outline: as §1

[23] = molecular target: Neu5Gc(a2-6)Gal(b1-4)GlcNAc
Outline: as §1

Neu5Gc(a2-6)GalNAc = molecular target: Neu5Gc(a2-6)GalNAc
Outline: as §1

[24] = molecular target: Neu5Gc(a2-8)Neu5Ac(a2-3)Gal(b1-4)GlcNAc
Outline: as §1

[25] = molecular target: Neu5Gc(a2-8)Neu5Gc(a2-3)Gal(b1-4)GlcNAc
Outline: as §1

[26] = molecular target: Neu5Gc(a2-8)Neu5Gc(a2-3)Gal(b1-4)GlcNAc(b1-3)Gal(b1-4)GlcNAc
Outline: as §1

[27] = molecular target: Neu5Gc(a2-8)Neu5Gc(a2-6)Gal(b1-4)GlcNAc
Outline: as §1

[28] = molecular target: Neu5Gc(b2-6)Gal(b1-4)GlcNAc
Outline: as §1

B1: TIM1 (protein)
chain: ADGIQSVKVGGEAGPSVTLPCHYSGAVTSMCWNRGSCSLFTCQNGIVWTNGTHVTYRKDTRYKLLGDLSRRDVSLTIENTAVSDSGVYCCRVEHRGWFNDMKITVSLEIVPPHHHHHH
Q: How did the “glycan array binding signal (z-score)” value [1] turn out when B1 was run?
A: -0.254

Q: And the “glycan array binding signal (z-score)” value (Neu5Ac(a2-8)Neu5Ac)?
A: -0.103

Q: What about the “glycan array binding signal (z-score)” value [2] of the same binder?
A: -0.24

Q: And the “glycan array binding signal (z-score)” value [3]?
A: -0.158

Q: What about the “glycan array binding signal (z-score)” value [4] of the same binder?
A: -0.235

Q: What about the “glycan array binding signal (z-score)” value [5] of the same binder?
A: -0.2

Q: What about the “glycan array binding signal (z-score)” value [6] of the same binder?
A: -0.133

Q: And the “glycan array binding signal (z-score)” value [7]?
A: -0.183

Q: And the “glycan array binding signal (z-score)” value [8]?
A: -0.229

Q: What about the “glycan array binding signal (z-score)” value [9] of the same binder?
A: -0.195

Q: What about the “glycan array binding signal (z-score)” value [10] of the same binder?
A: -0.197

Q: And the “glycan array binding signal (z-score)” value [11]?
A: -0.281

Q: And the “glycan array binding signal (z-score)” value [12]?
A: -0.224

Q: What about the “glycan array binding signal (z-score)” value [13] of the same binder?
A: -0.244

Q: What about the “glycan array binding signal (z-score)” value [14] of the same binder?
A: -0.075

Q: And the “glycan array binding signal (z-score)” value (Neu5Ac(b2-6)GalNAc)?
A: -0.287

Q: What about the “glycan array binding signal (z-score)” value [15] of the same binder?
A: -0.192

Q: And the “glycan array binding signal (z-score)” value [16]?
A: -0.213

Q: What about the “glycan array binding signal (z-score)” value [17] of the same binder?
A: -0.035

Q: What about the “glycan array binding signal (z-score)” value [18] of the same binder?
A: -0.177

Q: What about the “glycan array binding signal (z-score)” value [19] of the same binder?
A: -0.216

Q: What about the “glycan array binding signal (z-score)” value (Neu5Gc(a2-3)Gal(b1-4)Glc) of the same binder?
A: 0.036

Q: What about the “glycan array binding signal (z-score)” value [20] of the same binder?
A: -0.213

Q: What about the “glycan array binding signal (z-score)” value [21] of the same binder?
A: -0.111

Q: What about the “glycan array binding signal (z-score)” value [22] of the same binder?
A: -0.159

Q: What about the “glycan array binding signal (z-score)” value [23] of the same binder?
A: -0.002

Q: And the “glycan array binding signal (z-score)” value (Neu5Gc(a2-6)GalNAc)?
A: -0.001

Q: And the “glycan array binding signal (z-score)” value [24]?
A: -0.137

Q: And the “glycan array binding signal (z-score)” value [25]?
A: -0.191

Q: And the “glycan array binding signal (z-score)” value [26]?
A: -0.218

Q: And the “glycan array binding signal (z-score)” value [27]?
A: -0.218

Q: And the “glycan array binding signal (z-score)” value [28]?
A: -0.189

Reference: the supplement of paper PMC8728848
